Experiment [1] has as its system West Nile virus New York 99 strain (WNV-NY99). The experiment can be described thus: WNV infectious cell culture system in Huh7 cells, E protein immunostaining. The note with it: for EC50: West Nile virus, Huh-7, 48 h, read-out: WNV EC50.
For experiment [2], the system named is Dengue virus type 2 (DENV-2; New Guinea-C Strain). The experiment can be described thus: DENV infectious cell culture system in Huh7 cells, E protein immunostaining. The note with it: for EC50: Dengue virus, DENV2, Huh-7, 48 h, read-out: DENV EC50.

Here are results for four compounds from patent US10941121B2 (AZIENDA OSPEDALIERA UNIVERSITARIA SENESE, priority 2015, dated 2021).

Regarding `CCCCc1cn(-c2ccc(NC(=O)Nc3ccccc3C)cc2)nn1` [Compound 20a, 1-(4-(4-butyl-1H-1,2,3-triazol-1-yl)phenyl)-3-o-tolylurea], in experiment [1], the “inhibition of WNV infection, in words” value is “significantly inhibit” and the concentration giving a half-maximal response (EC50) was found to be 16000 nM. Moreover, in experiment [2], the “inhibition of DENV infection, in words” value is reported as “significantly inhibit”.

For `CCCCc1cn(-c2ccc(NC(=O)Nc3ccccc3C(F)(F)F)cc2)nn1` [Compound 22a, 1-(4-(4-butyl-1H-1,2,3-triazol-1-yl)phenyl)-3-(2-(trifluoromethyl)phenyl)urea], in experiment [1], the “inhibition of WNV infection, in words” value is given as “significantly inhibit” and the EC50 worked out at 180 nM. Further, in experiment [2], the “inhibition of DENV infection, in words” value is “significantly inhibit” and the EC50 was determined as 120 nM.

Consider `O=[N+]([O-])c1cccc(S(=O)(=O)Nc2ccccc2O)c1` [Compound 58a, N-(2-hydroxy)-3-nitro-phenylbenzenesulfonamide], for which the EC50 in experiment [1] came out at 7160 nM; in experiment [2], 1100 nM.

As to `Cc1ccccc1NC(=O)Nc1ccc(-n2cc(CCC(C)C)nn2)cc1` [Compound 20b, 1-(4-(4-isopentyl-1H-1,2,3-triazol-1-yl)phenyl)-3-o-tolylurea], in experiment [1], the “inhibition of WNV infection, in words” value is recorded as “significantly inhibit” and the EC50 turned out to be 2830 nM. Also, in experiment [2], the “inhibition of DENV infection, in words” value was “significantly inhibit” and the EC50 was 130 nM.
